# Out of some 360,000 compounds screened, about 25,000 (6.9%) were called active. Inconclusive means that the source gave no clear call. Such entries were picked first, then a sample of the others. Calls come from the whole dose curve; as a rule, active = well fitted inhibition curve with a large enough effect; inconclusive = small, poorly fitted or top-dose-only effect; inactive = flat fitted curve, though single readings scatter. Potencies of inconclusive entries are doubtful fits and often do not repeat.
# Target: Luciferin 4-monooxygenase (Photinus pyralis) (UniProt P08659)
# UniProt P08659, sequence (P08659 whole entry, looked up): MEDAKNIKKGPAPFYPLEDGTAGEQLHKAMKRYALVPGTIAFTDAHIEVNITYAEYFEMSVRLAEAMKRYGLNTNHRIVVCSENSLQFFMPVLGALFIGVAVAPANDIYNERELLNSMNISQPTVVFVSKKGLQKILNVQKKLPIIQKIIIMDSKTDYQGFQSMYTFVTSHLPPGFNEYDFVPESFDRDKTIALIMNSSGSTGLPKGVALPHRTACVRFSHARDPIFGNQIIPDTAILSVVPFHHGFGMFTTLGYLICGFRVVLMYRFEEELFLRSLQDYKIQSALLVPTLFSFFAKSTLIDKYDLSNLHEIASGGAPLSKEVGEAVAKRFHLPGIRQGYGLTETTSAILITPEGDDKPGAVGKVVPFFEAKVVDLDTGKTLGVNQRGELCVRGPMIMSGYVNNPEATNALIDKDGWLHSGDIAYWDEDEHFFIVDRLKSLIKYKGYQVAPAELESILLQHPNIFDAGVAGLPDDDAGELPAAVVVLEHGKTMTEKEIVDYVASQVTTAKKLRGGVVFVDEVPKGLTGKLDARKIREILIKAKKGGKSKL
# Assay: qHTS profiling assay for firefly luciferase inhibitor/activator using purifed enzyme and Km concentrations of substrates (counterscreen for miR-21 project); note: nearly all actives have a fitted effect of over 55% in size
# Settings: purified FLuc, luminescence inhibition; series mostly up to 57.5 µM
# In short: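 Purified P. pyralis luciferase, 10 nM final, with Km-level 10 uM D-luciferin and 10 uM ATP in 50 mM Tris acetate pH 7.5, 10 mM Mg acetate, 0.01% Tween-20, 0.05% BSA; 6-point qHTS titration about 60 µM downward; luminescence read.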
# Potency is the fitted concentration of half-maximal effect; tags give direction and shape of the fitted curve.
row,Structure (SMILES),Potency
1,CC(C)(C)NC(=O)CN(C(=O)CNC(=O)c1cccs1)c1ccc2c(c1)OCCO2,inactive
2,N#Cc1ccc(C2N=C(c3ccccc3)NO2)cc1 (stereo not drawn),active: 10.7 µM
3,Cc1nc2cc(C)c(C)cc2s1,"inconclusive: 37.9 µM [inhibitor, partial curve, poor fit]"
4,N#CCCN(C(=O)COC(=O)C1CCN(S(=O)(=O)c2cccs2)CC1)c1ccccc1,inactive
5,COc1ccc(/C=C/C(=O)O)cc1S(=O)(=O)NCc1cccnc1,inactive
6,O=C(NCc1ccc2c(c1)OCO2)c1ccc(-c2ccc(Cl)cc2)o1,"inconclusive: 23.9 µM [inhibitor, partial curve, poor fit]"
7,CCN(CC)C(=N)/C(C#N)=N/Nc1ccc(C)cc1,active: 9.53 µM
8,CC1=C(C(=O)OC2CCCCCC2)C(c2c(Cl)cccc2Cl)CC(=O)N1 (stereo not drawn),"inconclusive: 37.9 µM [inhibitor, partial curve, poor fit]"
9,Cc1nc2c(ccc3nc(NC(=O)c4ccc5c(c4)OCCO5)sc32)s1,active: 0.213 µM
10,Fc1ccccc1CSc1nncn1NC/C=C/c1ccccc1,inactive
11,Cc1oc2ccccc2c1CC(=O)NCCCN(C)C,inactive
12,CC(C)N(C(=O)CO/N=C/c1cccc([N+](=O)[O-])c1)C(C)C,inactive
13,Cc1cc(O)c(/C=N/Nc2ccccc2Cl)c(=O)o1,"inconclusive: 10.7 µM [inhibitor, partial curve]"
14,O=C(NC1CC1)c1ccc(-c2ccccc2)cc1,active: 16.9 µM
15,O=C(NNS(=O)(=O)c1ccccc1C(F)(F)F)c1cc2ncc(C(F)(F)F)cc2s1,inactive
16,Cc1cc(N)n2ncc(-c3ccc(F)cc3)c2n1,active: 10.7 µM
17,CC(C)CSc1nsc(N)n1,"inconclusive: 26.9 µM [inhibitor, single point]"
18,C/C(=N\Nc1nc(C)cc(-c2ccccc2)n1)c1ccc(F)cc1,"inconclusive: 3.79 µM [inhibitor, full curve]"
19,Cc1cc(C)c(S(=O)(=O)Nc2cccc(S(=O)(=O)NC3=NCCC3)c2)c(C)c1,"inconclusive: 37.9 µM [inhibitor, partial curve, poor fit]"
20,COc1ccc2c(CNCCc3ccccc3OC)c(C(=O)O)n(Cc3ccc(F)cc3Cl)c2c1,inactive
21,CCc1ccc(C(=O)OCC(=O)N2CCCCCC2)cc1,"inconclusive: 26.9 µM [inhibitor, single point]"
22,CC1=C(C(=O)OC2CCCC2)C(c2ccc(Cl)cc2)CC(=O)N1 (stereo not drawn),inactive
23,CCc1cc[n+](C2=C([O-])c3ccccc3C(=O)/C2=N\S(=O)(=O)c2cccs2)cc1,"inconclusive: 37.9 µM [inhibitor, partial curve, poor fit]"
24,O=c1[nH]n(-c2cccc(Cl)c2)c2ncccc12,"inconclusive: 21.3 µM [inhibitor, partial curve, poor fit]"

row,Structure (SMILES),Potency
1,Cc1cc(C)n(C(=O)COc2ccccc2[N+](=O)[O-])n1,inactive
2,COc1ccc(CNC(=S)N/N=C(\C)c2ccc(OC)cc2)cc1,"inconclusive: 23.9 µM [inhibitor, single point]"
3,Cc1nc(NC(=O)/C=C/c2ccccc2)n[nH]1,"inconclusive: 21.3 µM [inhibitor, single point]"
4,COc1ccccc1C(=O)Nc1ccc(NC(=O)c2ccco2)c(C)c1,"inconclusive: 23.9 µM [inhibitor, single point]"
5,COc1cc(OC)c(OC)cc1/C=N/Nc1ncnc2c1[nH]c1ccccc12,"inconclusive: 1.07 µM [inhibitor, full curve]"
6,Cc1ccc(-n2ncc3c(NNC(=O)c4ccco4)ncnc32)cc1C,"inconclusive: 13.5 µM [inhibitor, partial curve]"
7,O=C(COc1cccc(OC(F)F)c1)Nc1ccc(SC(F)F)cc1,"inconclusive: 21.3 µM [inhibitor, single point]"
8,O=C(O)COc1ccccc1/C=N/NC(=O)c1cc(-c2ccc(F)cc2)nc2ccccc12,active: 1.9 µM
9,CCC(C)Sc1cccc(-c2nc3cc(C)ccn3c2NCc2ccccc2)c1 (stereo not drawn),"inconclusive: 16.9 µM [inhibitor, partial curve]"
10,CCCCn1c(-c2cccs2)nc2nc3ccccc3nc21,"inconclusive: 26.9 µM [inhibitor, single point]"
11,CCOc1cccc(C2c3[nH]c4ccccc4c3CCN2C(=O)Cc2cccc(OCC)c2OCC)c1 (stereo not drawn),inactive
12,CC1CCc2nc(NC(=O)Cc3ccc(Cl)cc3)sc2C1 (stereo not drawn),"inconclusive: 15.1 µM [inhibitor, partial curve, poor fit]"
13,CNc1c([N+](=O)[O-])cnn1-c1ccccc1F,"inconclusive: 26.9 µM [inhibitor, single point]"
14,COc1cc(-c2nc(CN3CCN(CC(C)C)C(=O)[C@@H]3C)c(C)o2)ccc1F,inactive
15,CCOc1ccc(C(=O)NC(C(=O)NCC(c2cccs2)N(C)C)C(C)C)cc1 (stereo not drawn),inactive
16,CC(=O)Nc1cccc(OCCCNC(=O)c2cccc3ccccc23)c1,"inconclusive: 26.9 µM [inhibitor, single point]"
17,COc1ccc2c(CC(=O)Nc3ncc(C)s3)coc2c1,"inconclusive: 4.26 µM [inhibitor, full curve, poor fit]"
18,Cc1c(CCC(=O)NCCCCCC(=O)O)c(=O)oc2cc3occ(-c4ccccc4)c3cc12,"inconclusive: 26.9 µM [inhibitor, single point]"
19,Cc1nc(/N=C\c2ccc(N(C)C)cc2)sc1C,active: 0.301 µM
20,N#Cc1c(NC(=O)c2cccnc2)sc2c1CCC2,active: 9.53 µM
21,O=[N+]([O-])c1cccc(/C=N/N2CCN(Cc3ccccc3)CC2)c1,"inconclusive: 30.1 µM [inhibitor, partial curve]"
22,COCc1cc(=O)n2[nH]c(-c3ccc(C)cc3)cc2n1,active: 12 µM
23,Cc1ccn2c(-c3csc(NCc4ccccc4)n3)c(C)nc2c1,"inconclusive: 37.9 µM [inhibitor, single point]"
24,COc1cc(/C=C2/C(=O)N(c3ccc([N+](=O)[O-])cc3)N=C2N2CCOCC2)ccc1O,"inconclusive: 30.1 µM [inhibitor, single point]"

# Source: PubChem BioAssay AID588342 (National Center for Advancing Translational Sciences (NCATS), 2011)
